Data published in PubChem BioAssay AID1159614 (National Center for Advancing Translational Sciences (NCATS), 2016).
In all, about 45,000 compounds went through this assay and about 65 (0.1%) were called active. The call rests on the fitted dose curve; in most records, active means well fitted activation curve with a large enough effect; inconclusive means small, poorly fitted or top-dose-only effect; inactive means no such curve, though single readings can be large or run the other way. Some of the results follow.

target: Galactocerebrosidase (Homo sapiens) (UniProt P54803); test: A Novel Cell-Based Assay to Identify Small Molecules for B -Galactocerebrosidase; conditions: 145M-Twi-hGALC-G270D cells (Twitcher mouse brain line with human GALC G270D), HMU-beta-Gal fluorescence, 48 h; series mostly up to 57.5 µM; activation: at the top concentration; further: 0% is about no effect; nearly all actives have a fitted effect of over 65% in size
UniProt P54803, sequence (P54803 whole entry, looked up): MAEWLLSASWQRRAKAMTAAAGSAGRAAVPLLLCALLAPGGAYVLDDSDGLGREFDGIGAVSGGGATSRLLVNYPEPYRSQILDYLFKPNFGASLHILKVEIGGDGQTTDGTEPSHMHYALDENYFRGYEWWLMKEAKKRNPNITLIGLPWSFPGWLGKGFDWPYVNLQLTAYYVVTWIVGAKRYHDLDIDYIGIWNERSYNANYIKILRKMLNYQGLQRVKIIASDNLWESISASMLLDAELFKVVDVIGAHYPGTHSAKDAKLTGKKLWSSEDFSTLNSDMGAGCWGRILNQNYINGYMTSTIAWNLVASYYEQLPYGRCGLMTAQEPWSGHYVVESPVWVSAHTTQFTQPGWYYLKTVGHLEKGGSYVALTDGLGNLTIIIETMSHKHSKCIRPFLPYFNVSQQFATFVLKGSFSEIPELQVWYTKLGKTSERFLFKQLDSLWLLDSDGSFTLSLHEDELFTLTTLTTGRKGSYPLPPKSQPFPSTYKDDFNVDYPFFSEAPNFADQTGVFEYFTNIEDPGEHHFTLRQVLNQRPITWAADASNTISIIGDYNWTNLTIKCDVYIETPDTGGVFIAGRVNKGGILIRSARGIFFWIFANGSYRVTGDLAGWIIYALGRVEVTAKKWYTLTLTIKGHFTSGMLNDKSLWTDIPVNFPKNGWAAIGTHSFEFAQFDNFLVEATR
How it was run: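 Fluorogenic HMU-b-Gal hydrolysis (0.1 mM final, pH 5.2 citrate-phosphate with 1 mg/mL sodium taurocholate; carbonate stop buffer) measures mutant GALC activity after compound treatment of live 145M-Twi Twitcher brain cells stably carrying human GALC-G270D, with wild-type GALC line alongside; activation sought.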

activation, inactive:
CCc1cccc(NC(=O)CSc2nncn3c2cc2sccc23)c1 1.64%
CCOc1ccc(CCNC(=O)c2cc3c(=O)n(CC)c4ccccc4c3s2)cc1OCC -2.04%
Cc1ccc(NC(=O)c2sc3ncn(Cc4cccc(F)c4)c(=O)c3c2C)c(Br)c1 -5.92%
Cc1ccc(N(Cc2cccs2)C(=O)C(C)Oc2ccc(Cl)c(C)c2)cc1 (stereo not given) 30.1%
Cc1ccc(C)c(NC(=O)Cn2nc(C)c3nn(-c4ccc(Cl)cc4)c(C)c3c2=O)c1 7.78%
O=C(Nc1cccc(Cl)c1Cl)c1ccc2c(c1)N(Cc1cccc(Cl)c1)C(=O)c1ccccc1S2=O (stereo not given) -3.17%
COc1ccc(N2CCN(c3ccc(-c4nc(-c5ccccc5)no4)cc3[N+](=O)[O-])CC2)cc1 -14.2%
CCn1c2ccccc2c2cc(CN3CCN(Cc4cc(OC)c(O)c(OC)c4)CC3)ccc21 2.51%
COc1ccc(CNC(=O)CCS(=O)(=O)c2cc(Br)cc3c2N(C(C)=O)C(C)C3)cc1 (stereo not given) 1.21%
CCOc1ccccc1NC(=O)CCCc1nc(-c2ccccc2Cl)no1 -10.5%
CCN(CC)S(=O)(=O)c1ccc2c(c1)N(CC(=O)N1CCN(c3ccc(OC)cc3)CC1)C(=O)CO2 -5.74%
Cn1cnc(S(=O)(=O)N2CCCC(C(=O)NCc3ccc(Cl)cc3)C2)c1 (stereo not given) -4.4%
Cc1ccccc1Nc1c(-c2cccc(Cl)c2)nc2ncccn12 -14.7%
CCN(Cc1ccccc1)C(=O)c1cc(-c2ccccc2)n[nH]1 -32.3%
Cc1ccc(Cl)cc1N1CCN(C(=O)CN2C(=O)COc3ccc(S(=O)(=O)N4CCCCCC4)cc32)CC1 -0.733%
COc1ccc(S(=O)(=O)NCCSc2nnnn2-c2ccccc2)cc1OC -31.6%
Cc1c(C)n(Cc2ccccc2)c2ccc(C(=O)N3CCN(c4ccc(F)cc4)CC3)cc12 7.53%
CC(C)CCNC(=O)c1ccc2c(c1)NC(=O)C(C(C)C)N2 (stereo not given) -2.53%
Cc1c(C(=O)O)c(O)cc2c1C(=O)c1c(O)c([C@@H]3O[C@H](CO)[C@@H](O)[C@H](O)[C@H]3O)c(O)c(O)c1C2=O -8.76%
Cc1ccc(NC(=O)C2CCN(S(=O)(=O)c3ccc4[nH]c(=O)ccc4c3)CC2)cc1C -9.69%
Cc1ccccc1CNc1nc(N(C)C)nc2c1cnn2C -8.81%
CCc1ccccc1NCc1nnc2n1CCCCC2 -11%
Cn1c(=NC(=O)c2ccc(S(=O)(=O)N3CCCC3)cc2)sc2cc(F)ccc21 -13.2%
O=C1COc2cc(S(=O)(=O)CCC(=O)N3CCN(c4ccccc4F)CC3)c(Cl)cc2N1 -2.58%
CCOc1ccc(CCNC(=O)Cn2c(-c3cccs3)cc3cc(F)ccc32)cc1OCC -2.32%
CCc1cccc(CC)c1NC(=O)Cn1c(=O)c(-c2cc(C)ccc2NC(C)=O)nc2ccccc21 3.11%
CCc1ccc(CN(Cc2ccco2)c2cnc(S(C)(=O)=O)nc2C(=O)Nc2c(C)cccc2C)cc1 -20.5%
CCCc1cc(N2CCN(c3ccccc3)CC2)n2cnnc2n1 -2.82%
COc1cccc(N(Cc2nnc3n2CCCCC3)C(=O)Nc2ccccc2)c1 -31%
Cc1oc(-c2ccccc2F)nc1CSCC(=O)N1CCN(c2ccccc2)CC1 -6.94%
Cc1nc2nc(NC(=O)c3ccc(C(C)(C)C)cc3)[nH]n2c(=O)c1Cl -4.22%
Cc1cccc(N2CCN(S(=O)(=O)c3ccc4c(c3)C(C(C)C)C(=O)N4)CC2)c1C (stereo not given) -26.1%
Cc1ccc(-c2nnc(SCC(=O)c3ccc(Cl)cc3)n2-c2ccccc2)cc1 -1.9%
COc1cccc(CN2CCCN(CC(=O)Nc3ccc4c(c3)OCCO4)S2(=O)=O)c1 -8.58%
CCOc1ccccc1NC(=O)C1CCN(S(=O)(=O)c2cc(Br)cc3c2N(C(C)=O)CC3)CC1 -0.898%
O=C(Nc1cccc(O)c1)c1cc2nc(-c3ccc(Br)cc3)cc(C(F)(F)F)n2n1 4.26%
COc1ccc(N2CCN(C(=O)CSc3c4c(nc5ccc(Cl)cc35)CCCC4)CC2)cc1 -6.63%
CCN(CC)CCOC(=O)C(Cc1cccc2ccccc12)CC1CCCO1 (stereo not given) -12.7%
CCCCOc1ccc(C(=O)NCCc2sc(-c3ccc(OC)c(OC)c3)nc2C)cc1 -19.9%
CCOc1ccc(CNC(=O)c2ccc3c(c2)N(CC)CCS3)cc1 -2.01%
CCOC(=O)OCC/C(SC(=O)OCC)=C(\C)N(C=O)Cc1cnc(C)nc1N -2.63%
COc1cccc(CCNC(=O)c2cnc3sc(N4CCCCCC4)nn3c2=O)c1 -3.99%
O=C(Nc1ccc2oc(-c3cccnc3)nc2c1)c1ccc(-c2cccc(Cl)c2)o1 -3.94%
COc1ccc(CN(C)c2ccc(-c3nc(-c4ccccc4)no3)cc2[N+](=O)[O-])cc1 -14.6%
COc1ccc(S(=O)(=O)c2c(Nc3c(C)cccc3C)sc(C(=O)c3ccc4c(c3)OCO4)c2N)cc1 -10.5%
Cc1ccc(-n2nc3c(=O)n(CC(=O)NC(C)C)nc(C)c3c2C)cc1 9.43%
CS(=O)(=O)c1ncc(Cl)c(C(=O)Nc2c(C(=O)Nc3ccccc3)oc3ccccc23)n1 -12.3%
Cc1cccc(Nc2ncc(NC(=O)c3cccc(F)c3)c(Nc3cccc(C)c3)n2)c1 -7.86%
COc1ccc2c(CC(=O)Nc3ccc(C)cc3)coc2c1 -26.7%
CCC(CC)C(=O)Nc1ccc2nc(SCc3ccccc3)sc2c1 -14.6%
Clc1ccc(CCNc2nc3ccccc3c3nc(-c4ccccc4)nn23)cc1 -11.8%
CCN(C(=O)CSc1nnc(-c2cc(OC)c(OC)c(OC)c2)o1)c1ccccc1 -2.52%
COc1ccc(NC(=O)CSC2=Nc3ccccc3C3=NC(CC(=O)NCc4ccco4)C(=O)N23)cc1 (stereo not given) -19.5%
O=C(Cn1c(-c2cccs2)cc2ccccc21)N1CCN(c2ccccc2F)CC1 -3.96%
O=C(CSc1nnc(-c2ccncc2)n1-c1ccccc1)Nc1ccc(Cl)c(Cl)c1 -13.5%
CC1(C)S[C@@H]2[C@H](NC(=O)C(C(=O)O)c3ccccc3)C(=O)N2[C@H]1C(=O)O (stereo not given in full) -16.6%
CCOc1cc(CNC(=O)c2ccccc2NC(=O)c2nsc3ccccc23)ccc1OC -10%
Cc1ccc(C(=O)N(Cc2ccco2)Cc2ccco2)cc1 -5.17%
CCOc1cccc(CC(=O)NCc2ccc3c(c2)CCN3C(=O)c2ccc(F)cc2)c1OCC -16.6%
CCOc1ccc(NC(=O)Cn2cc(C(=O)c3cccs3)c3ccccc32)cc1 -1.77%
